PMC4336329 (PLoS ONE, 2015)
The whole screen tested about 310,000 compounds, of which about 2,200 (0.71%) showed an effect of 50% or more. The effect is printed as a negative number. The list shows a part of the results.

Target: human ether-à-go-go-related gene (hERG) potassium channel (human, UniProt Q12809)
Assay: primary screen, population patch clamp on CHO cells stably expressing hERG

Chain of human ether-à-go-go-related gene (hERG) potassium channel (Q12809 whole entry, looked up): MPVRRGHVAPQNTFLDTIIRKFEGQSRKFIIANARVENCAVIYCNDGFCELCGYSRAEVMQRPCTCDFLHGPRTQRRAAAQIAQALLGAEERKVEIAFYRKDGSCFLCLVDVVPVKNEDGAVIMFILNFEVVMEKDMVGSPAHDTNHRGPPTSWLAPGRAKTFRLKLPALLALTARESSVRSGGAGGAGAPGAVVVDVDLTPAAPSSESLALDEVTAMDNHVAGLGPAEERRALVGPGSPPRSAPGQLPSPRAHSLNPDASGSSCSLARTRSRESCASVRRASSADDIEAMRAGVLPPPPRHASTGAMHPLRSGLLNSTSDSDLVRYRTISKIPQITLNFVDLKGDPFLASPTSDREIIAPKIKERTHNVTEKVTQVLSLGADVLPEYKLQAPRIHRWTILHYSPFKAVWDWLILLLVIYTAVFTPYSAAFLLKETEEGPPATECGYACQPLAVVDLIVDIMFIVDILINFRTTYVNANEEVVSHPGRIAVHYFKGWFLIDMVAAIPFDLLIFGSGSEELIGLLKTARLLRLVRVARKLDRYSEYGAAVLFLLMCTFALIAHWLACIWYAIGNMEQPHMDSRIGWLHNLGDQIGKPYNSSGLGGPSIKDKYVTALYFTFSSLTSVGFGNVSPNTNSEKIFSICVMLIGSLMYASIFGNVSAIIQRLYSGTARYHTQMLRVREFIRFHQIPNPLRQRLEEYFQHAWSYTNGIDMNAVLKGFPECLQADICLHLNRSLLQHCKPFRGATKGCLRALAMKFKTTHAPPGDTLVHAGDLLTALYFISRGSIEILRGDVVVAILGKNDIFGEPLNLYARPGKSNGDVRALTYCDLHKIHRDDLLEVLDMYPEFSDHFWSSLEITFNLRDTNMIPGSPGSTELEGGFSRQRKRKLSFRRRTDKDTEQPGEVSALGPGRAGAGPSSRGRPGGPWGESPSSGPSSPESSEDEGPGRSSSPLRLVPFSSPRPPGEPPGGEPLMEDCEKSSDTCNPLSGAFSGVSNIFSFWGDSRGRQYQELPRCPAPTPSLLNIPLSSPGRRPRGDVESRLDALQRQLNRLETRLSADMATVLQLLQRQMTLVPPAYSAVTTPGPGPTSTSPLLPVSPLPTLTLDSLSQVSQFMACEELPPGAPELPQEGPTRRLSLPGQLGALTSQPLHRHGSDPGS

| SMILES | hERG current change (%, negative = inhibition) at 1uM [%] |
| --- | --- |
| COc1cc(C(=O)OCC(=O)N2CCCC2)cc(OC)c1OC | 14.2 |
| COc1ccc(-c2nn(-c3ccccc3)cc2C(=O)n2nnc3ccccc32)cc1 | 3.22 |
| Br.O=C1c2ccccc2C(=O)N1c1cccc(-c2csc(Nc3ccc4c(c3)OCO4)n2)c1 | -1.77 |
| NC(=S)Nc1nccc(-c2cccs2)n1 | 11.7 |
| COc1ccc(/C=C2\SC(=S)N(CC(=O)N(C)C3CCS(=O)(=O)C3)C2=O)cc1 (centres unmarked) | 8.77 |
| CS(=O)(=O)N1CCN(c2ccc(NC(=S)NC(=O)c3cccs3)cc2)CC1 | 14 |
| CCOC(=O)c1c(NC(=O)C(C)NCc2ccco2)sc2c1CCC(C)C2.O=C(O)C(=O)O (centres unmarked) | 0.556 |
| O=C(NCc1nnc(SCC(=O)N2CCCC2)o1)c1cccc(C(F)(F)F)c1 | 12 |
| COc1cccc(-c2nc3ccc(N4CCN(C)CC4)cc3[nH]2)c1 | 1.18 |
| CC(C)CNC(=O)C1CC(=O)OC12CCCCC2 (centres unmarked) | 8.29 |
| CCCCn1nc(C(=O)Nc2cccc(C(=O)NC3CC3)c2)c2ccccc2c1=O | -41 |
| Cc1cccc(NC(=O)CSCC(=O)N(C)CC(=O)Nc2cccc(F)c2)c1 | 16.2 |
| COc1ccc(C2(c3ccc(OC)cc3)NC(=O)N(CC(=O)N3CCOCC3)C2=O)cc1 | 8.7 |
| Cc1ccc(OCC(=O)NNC(=S)NC(=O)C2CC2)c(C)c1 | 15.9 |
| Cc1ccccc1CNC(=O)Nc1ccc(Cl)cc1 | 13.4 |
| Cc1ccc(C(=O)NC(Cc2c[nH]c3ccccc23)C(=O)O)o1 (centres unmarked) | 8.54 |
| O=C(Nc1nccs1)c1ccc(-c2ccc(Cl)cc2)o1 | 12.5 |
| CC(C)Cn1c(N)c(C(=O)COC(=O)CCc2nc3ccccc3c(=O)[nH]2)c(=O)n(C)c1=O | -10.1 |
| Cl.O=C(CCN1CCCC1)Nc1ccc(Br)cc1 | 5.99 |
| CCN(c1ccccc1C(=O)O)S(=O)(=O)c1cccc2nsnc12 | 19.2 |
| OC(COc1ccc(C2C=CCC2)cc1)CN1CCCCC1 (centres unmarked) | -5 |
| NC(=O)C1CC(=O)N(c2ccc(OCc3ccc(F)cc3)cc2)C1 (centres unmarked) | 12.9 |

| SMILES | hERG current change (%, negative = inhibition) at 1uM [%] |
| --- | --- |
| COc1ccc(S(=O)(=O)NCC2CCC(C(=O)NCc3cccnc3)CC2)cc1 (centres unmarked) | 4.66 |
| CCN(CC)CCN(C(=O)c1ccc(CN2CCCCC2)o1)C(C(=O)NC1CCCCC1)c1ccc(F)cc1 (centres unmarked) | 8.81 |
| C=CCN(C(=O)CNC(=O)c1ccco1)C(C(=O)NC1CCCCC1)c1ccc(F)cc1 (centres unmarked) | 10.4 |
| O=C(NNC(=S)Nc1ccc(Cl)cc1Cl)c1ccc(N2CCOCC2)c([N+](=O)[O-])c1 | 5.96 |
| COc1ccc(OC)c(NC(=O)c2oc3ccccc3c2NC(=O)C2CC2)c1 | 11.5 |
| Cn1cc(CN2CCCC(C(=O)c3cc(F)ccc3F)C2)c2ccccc21 (centres unmarked) | 2.97 |
| CC(C)Cn1c(N)c(C(=O)COC(=O)c2c(F)cccc2F)c(=O)n(C)c1=O | 5.57 |
| CCOc1cccc(CN2CCCC(C(=O)Nc3ccc(-c4ccn[nH]4)cc3)C2)c1O (centres unmarked) | 5.57 |
| CN(C)S(=O)(=O)n1cc(/C=C(\NC(=O)c2ccccc2)C(=O)N2CCCC2)c2ccccc21 | 16 |
| CCCNc1nc(-c2cc(C(=O)Nc3ccccc3)on2)cc(C(C)C)n1 | 16.2 |
| O=C(C(=O)N1CCc2ccccc2C1)c1cn(CC(=O)N2CCCC2)c2ccccc12 | 3.39 |
| O=C(O)c1ccc(SCc2cnc(Cl)s2)cc1 | -79.6 |
| CCN(CC)CCCn1c2c(c(SCC(=O)Nc3nccs3)nc1=O)CCC2 | 7.84 |
| COc1ccc(Nc2ncnc3sc(-c4ccccc4)cc23)c(OC)c1 | 10.2 |
| Cn1c(=O)c2ncn(CC(=O)NC3CCCCCC3)c2n(C)c1=O | 10.1 |
| CCn1c(O)c(C=Nc2ccccc2)sc1=O | 4.82 |
| CCCCn1c(/N=C/c2ccc(N(C)C)cc2)nc2ccccc21 | 7.41 |
| CCOC(=O)COc1ncn(-c2ccccc2)n1 | 5.34 |
| O=C(COC(=O)c1cccc(F)c1)NC(=O)NC1CCCC1 | 12.2 |
| Cc1cc(O)cc(=O)n1Cc1ccco1 | 8.7 |
| CC(C)N(Cc1ccccc1)C(=O)CN1C(=O)NC2(CCCc3ccccc32)C1=O (centres unmarked) | 2.04 |
| CCOC(=O)c1c(NC(=O)CSc2nc3ccc(C)cc3[nH]2)sc2c1CC(C)(C)NC2(C)C | 4.67 |
